# PubChem BioAssay AID1865 (National Center for Advancing Translational Sciences (NCATS), 2009)
# Where “and” joins values, the source holds several entries; their conditions need not be identical. Equal values may be shown once. Out of some 280,000 compounds screened, about 540 (0.19%) were called active. The inconclusive results got no clear call from the source; some entries with a clear call stand among them for comparison. Calls follow the shape of the dose curve; as a rule, active = well fitted activation curve with a large enough effect; inconclusive = small, poorly fitted or top-dose-only effect; inactive = flat fitted curve, though single readings scatter. Potencies beside an inconclusive call are fits to weak or partial responses and may not hold up.
# Test: Quantitative High-Throughput Screen for Regulators of Epigenetic Control; also: nearly all actives have a fitted effect of over 60% in size
# Conditions: murine LDR cells, GFP reporter derepression, 30 h; series mostly up to 53.9 µM
# How it was run: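 In this reporter-derepression format, murine cells bearing a silenced integrated CMV-GFP locus incubate with test compound (30 h, 37 C), then are washed and imaged; fluorescent objects of 20–120 um count as induced cells.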
# Potency is read from the fitted curve at half-maximal effect; tags tell the direction and shape of the fitted curve.
row,Structure (SMILES),Potency
1,CCOc1ccc(CCNC(=O)c2ccc3c(c2)c(C)c(C)n3C)cc1,inactive
2,CN(C)c1ccc(N=Nc2ccccc2C(=O)OCC(=O)NCC2CCCCC2)cc1,inactive
3,CCN1/C(=C/c2ccc3cc(C)ccc3[n+]2CC)Sc2cc(C)c(C)cc21,active: 25.1 µM
4,Cc1cc(C)n(CCc2nc(-c3ccco3)cs2)n1,"inconclusive: 10 µM [activator, single point]"
5,C=CCn1c(SCc2nc3ccccc3c(=O)[nH]2)nc2scc(C3CC3)c2c1=O,"inconclusive: 12.6 µM [activator, single point]"
6,Cc1ccc(C2CC(=O)N(Cc3ccccc3F)c3c2c(C)nn3-c2nc(C)cc(C)n2)cc1 (configuration not stated),"inconclusive: 0.631 µM [activator, single point]"
7,COC(=O)c1ccc(Cl)cc1NC(=O)N1CC=C(c2c[nH]c3ccccc23)CC1,active: 28.2 µM
8,CN1CCN(C(=O)c2ccc(-n3c(=O)c(=O)[nH]c4ccccc43)cc2)CC1,inactive
9,COc1cc(N2C(=O)c3ccccc3C2=O)c(Cl)cc1C(=O)OCC(=O)N1CCOCC1,"inconclusive: 5.62 µM [activator, single point]"
10,N#CC(C#N)=C(N)CSc1cccc[n+]1[O-],active: 8.91 µM
11,Cc1ccc(N2C(=O)C3C4C=CC(CNC(=S)N5CCN(c6ccccn6)CC5)(O4)C3C2=O)cc1 (configuration not stated),inactive
12,Nc1c(C(=O)Nc2nc3ccccc3s2)sc2nc(-c3cccs3)ccc12,"inconclusive: 25.1 µM [activator, single point]"
13,O=C(Cn1c(=O)oc2cc(S(=O)(=O)N3CCCCC3)ccc21)N1CCc2ccccc21,"inconclusive: 11.2 µM [activator, partial curve]"
14,CCOC(=O)C1=C(O)/C(=C/c2cn(CC(=O)N3CCCC3)c3ccccc23)SC1=Nc1ccccc1,"inconclusive: 35.5 µM [activator, single point]"
15,O=C(CSc1nc2ccsc2c(=O)n1Cc1ccccc1)NCC1CCCO1 (configuration not stated),inactive
16,CCOc1ccc2oc(=O)cc(CN3CCN(c4cc(C)ccc4C)CC3)c2c1,inactive
17,COc1ccc(C2/C=C\CN(C(=O)NC(C)C)CC(=O)N2Cc2ccc(F)cc2)cc1 (configuration not stated),inactive
18,Cn1c(SCC(=O)N/N=C/c2ccc([N+](=O)[O-])s2)nnc1-c1ccc(Cl)cc1,"inconclusive: 17.8 µM [activator, single point]"
19,CC(=O)c1cccc(NC(=O)/C=C/c2ccc([N+](=O)[O-])s2)c1,active: 3.98 µM
20,COc1ccc2c(c1)N(C)/C(=C1/SC(=NCc3ccccc3)N(c3ccccc3)C1=O)S2,"inconclusive: 5.62 µM [activator, single point]"
21,CN(C)c1ccc(/C=C2\CCC/C(=C\c3ccccc3)C2=O)cc1,"inconclusive: 31.6 µM [activator, single point]"
22,COc1ccc(NC(=O)c2cc3c(-c4ccc(OC)c(OC)c4)nn(C)c3s2)cc1OC,"inconclusive: 14.1 µM [activator, single point]"
23,COc1cc(OC)cc(C(=O)NC(C(=O)NCCN(C)C)C23CC4CC(CC(C4)C2)C3)c1 (configuration not stated),"inconclusive: 6.31 µM [activator, single point]"

row,Structure (SMILES),Potency
1,COc1ccc(S(=O)(=O)N2N=C(c3ccc(NS(C)(=O)=O)cc3)CC2c2ccco2)cc1 (configuration not stated),inactive
2,Cc1cc(O)c(CN2CCN(c3ccc(F)cc3)CC2)c2oc(=O)cc(C)c12,inactive
3,CCOc1ccc(-c2nnc(SCC(=O)NCCc3ccccc3)nc2-c2ccc(OCC)c(OC)c2)cc1OC,"inconclusive: 31.6 µM [activator, single point]"
4,COCCCn1c(=O)c2ccccc2c2ccccc2c1=O,"inconclusive: 5.01 µM [activator, single point]"
5,O=C1N(Cc2cccnc2)C[C@@H]2C[C@@H](c3cccc(OC4CCCC4)c3)N3CCC[C@@]123,"inconclusive: 31.6 µM [activator, single point]"
6,COc1ccc(CN(CCC#N)C(=S)NC(=O)c2ccccc2)cc1,"inconclusive: 35.5 µM [activator, single point]"
7,O=C(CCCn1c(=O)c2cccn2c2cccnc21)Nc1ccccc1Br,"inconclusive: 17.8 µM [activator, single point]"
8,O=C(NNC(=O)[C@H]1CC=CC[C@H]1C(=O)O)c1ccc(Cl)cc1Cl,"inconclusive: 35.5 µM [activator, single point]"
9,Cc1ccccc1/C=N/NC(=O)Cn1cnc([N+](=O)[O-])n1,inactive
10,Cc1ccc(NC(CNS(=O)(=O)c2ccc(Cl)cc2)c2ccccc2)cc1 (configuration not stated),"inconclusive: 17.8 µM [activator, single point] and inconclusive: 35.5 µM [activator, single point]"
11,COc1cccc(CNC(=O)c2ccc(CS(=O)Cc3ccc(Cl)cc3)o2)c1 (configuration not stated),inactive
12,CCOc1cc(/C=C2/COc3ccccc3C2=O)ccc1OCC(=O)N(C)C,"inconclusive: 31.6 µM [activator, single point]"
13,CCOC(=O)c1sc(NC(=O)CCN2CCCCCC2)c(C(=O)OCC)c1C,"inconclusive: 31.6 µM [activator, single point]"
14,CCOC(=O)c1cc2c(N)c(C(=O)c3cc(C#N)c(SC)nc3C)sc2nc1C,"inconclusive: 35.5 µM [activator, single point]"
15,COc1ccccc1N1CCN(Cc2cc(Br)c(O)c3ncccc23)CC1,"inconclusive: 2.82 µM [activator, partial curve]"
16,COC(=O)c1sc2nc(N)c(C#N)cc2c1N,"inconclusive: 31.6 µM [activator, single point]"
17,CN1C(=O)Cc2cc(S(=O)(=O)CCC(=O)N3CCN(c4ccc(Cl)cc4)CC3)ccc21,inactive
18,O=C(Nc1ccc(O)c2c(=O)cc(-c3cccc(Cl)c3)oc12)c1ccccc1Cl,"inconclusive: 17.8 µM [activator, single point]"
19,CS(=O)(=O)Oc1ccc2c(c1)O/C(=C\C=C\c1ccccc1)C2=O,"inconclusive: 35.5 µM [activator, single point]"
20,COCCn1c(SCC(=O)c2c[nH]c3ccccc23)nc2cc(C(=O)NCC(C)C)ccc2c1=O,"inconclusive: 11.2 µM [activator, partial curve]"
21,Cc1[nH]c2c(C)cccc2c1CCNC(=O)c1cc2ccccc2oc1=O,"inconclusive: 35.5 µM [activator, single point]"
22,Cc1cc(Nc2cccc(C(F)(F)F)c2)nc2ccc(NC(=O)c3cncc(Br)c3)cc12,"inconclusive: 28.2 µM [activator, single point]"
23,CCOC(=O)C1=C(C)N=C2SC(C(=O)OC)=CC(=O)N2C1c1ccc(OC)cc1 (configuration not stated),"inconclusive: 0.158 µM [activator, full curve, poor fit]"

row,Structure (SMILES),Potency
1,O=C(Nc1ccccc1F)c1oc2ccccc2c1NC(=O)C12CC3CC(CC(C3)C1)C2,inactive
2,COC(=O)c1sc(-c2ccccc2)cc1NC(=O)Nc1ccc(Cl)cc1,inactive
3,CCOC(=O)c1cc(C)nc(S(C)(=O)=O)c1C#N,"inconclusive: 31.6 µM [activator, single point]"
4,O=C1CCC(C(=O)N2CCC(CO)(Cc3ccc(Cl)cc3)CC2)=NN1,"inconclusive: 31.6 µM [activator, single point]"
5,CCCCOc1ccc(/C=C/C2=CC(C)(C)NC(=S)N2)cc1OCC,"inconclusive: 35.5 µM [activator, single point]"
6,COC(=O)c1sccc1S(=O)(=O)N1CCN(c2ccc(C)cc2C)CC1,inactive
7,COc1cc(/C=N/NC(=O)c2cc3ccccc3cc2O)ccc1OCCN1CCCCC1,"inconclusive: 31.6 µM [activator, single point]"
8,O=C(CSc1cccc2cccnc12)OCC(=O)c1ccc(Br)cc1,"inconclusive: 31.6 µM [activator, single point]"
9,CCOC(=O)c1c(NC(=O)N/N=C/c2ccc(O)c(OC)c2)sc(C(C)=O)c1C,"inconclusive: 35.5 µM [activator, single point]"
10,CCn1c(=O)cc(C(=O)OC)sc1=Nc1ccc(F)c(F)c1,"inconclusive: 35.5 µM [activator, single point]"
11,Cc1cc(OCCn2c(CCNC(=O)C3CCCCC3)nc3ccccc32)ccc1Cl,"inconclusive: 20 µM [activator, single point]"
12,COc1ccc(C)cc1NS(=O)(=O)c1ccc2c3c(cccc13)C(=O)N2,inactive
13,Oc1ccc2ccccc2c1/C=N/Nc1nnc(-c2ncc[nH]2)c2ccccc12,"inconclusive: 35.5 µM [activator, single point]"
14,CCN(CC)c1ccc2cc(-c3nc(-c4ccc(Cl)cc4Cl)cs3)c(=O)oc2c1,active: 2.82 µM
15,Cc1cccc(NC(=O)Cn2cc(C(=O)C3CCCCC3)c3ccccc32)c1C,"inconclusive: 31.6 µM [activator, single point]"
16,NC(=O)c1cc2ccncc2c2ccccc12,inactive
17,CCOC(=O)COc1nc(-c2ccco2)cc(-c2ccco2)c1C#N,"inconclusive: 5.62 µM [activator, full curve]"
18,COc1cc2c(-c3ccccc3O)nc3c(c(C)nn3-c3ccccc3)c2cc1OC,"inconclusive: 11.2 µM [activator, partial curve]"
19,CCCC[n+]1ccn(-c2nc3ccccc3nc2[N-]S(=O)(=O)c2cccs2)c1,active: 10 µM
20,CCc1cc2c3c(c(=O)oc2cc1O)CCCC3,inactive
21,CCc1cccc(C)c1NC(=O)CO/N=C(\N)CC(=O)NC1CCCCC1,"inconclusive: 17.8 µM [activator, single point]"
